“And” between values parts separate entries of the source, which are not always exact repeats. Equal entries are not always repeated. About 31,000 (8.9%) of roughly 350,000 compounds were called active. Inconclusive results, whose numbers are uncertain, are shown with a selection of clear calls. Calls come from the whole dose curve; as a rule, active = well fitted inhibition curve with a large enough effect; inconclusive = small, poorly fitted or top-dose-only effect; inactive = no such curve, though single readings can be large or run the other way. Potencies beside an inconclusive call are fits to weak or partial responses and may not hold up. Some structures have more than one record in an assay (separate samples or runs), and their calls can disagree.
target: Histone-lysine N-methyltransferase EHMT2 (Homo sapiens) (UniProt Q96KQ7); experiment: qHTS Assay for Inhibitors of Histone Lysine Methyltransferase G9a; conditions: G9a H3K9 monomethylation, AlphaScreen, 2 h; activity, negative = inhibition: at 59 µM (top of the series) unless noted; note: nearly all actives have a fitted effect of over 75% in size
Sequence of UniProt Q96KQ7 (Q96KQ7 whole entry, looked up): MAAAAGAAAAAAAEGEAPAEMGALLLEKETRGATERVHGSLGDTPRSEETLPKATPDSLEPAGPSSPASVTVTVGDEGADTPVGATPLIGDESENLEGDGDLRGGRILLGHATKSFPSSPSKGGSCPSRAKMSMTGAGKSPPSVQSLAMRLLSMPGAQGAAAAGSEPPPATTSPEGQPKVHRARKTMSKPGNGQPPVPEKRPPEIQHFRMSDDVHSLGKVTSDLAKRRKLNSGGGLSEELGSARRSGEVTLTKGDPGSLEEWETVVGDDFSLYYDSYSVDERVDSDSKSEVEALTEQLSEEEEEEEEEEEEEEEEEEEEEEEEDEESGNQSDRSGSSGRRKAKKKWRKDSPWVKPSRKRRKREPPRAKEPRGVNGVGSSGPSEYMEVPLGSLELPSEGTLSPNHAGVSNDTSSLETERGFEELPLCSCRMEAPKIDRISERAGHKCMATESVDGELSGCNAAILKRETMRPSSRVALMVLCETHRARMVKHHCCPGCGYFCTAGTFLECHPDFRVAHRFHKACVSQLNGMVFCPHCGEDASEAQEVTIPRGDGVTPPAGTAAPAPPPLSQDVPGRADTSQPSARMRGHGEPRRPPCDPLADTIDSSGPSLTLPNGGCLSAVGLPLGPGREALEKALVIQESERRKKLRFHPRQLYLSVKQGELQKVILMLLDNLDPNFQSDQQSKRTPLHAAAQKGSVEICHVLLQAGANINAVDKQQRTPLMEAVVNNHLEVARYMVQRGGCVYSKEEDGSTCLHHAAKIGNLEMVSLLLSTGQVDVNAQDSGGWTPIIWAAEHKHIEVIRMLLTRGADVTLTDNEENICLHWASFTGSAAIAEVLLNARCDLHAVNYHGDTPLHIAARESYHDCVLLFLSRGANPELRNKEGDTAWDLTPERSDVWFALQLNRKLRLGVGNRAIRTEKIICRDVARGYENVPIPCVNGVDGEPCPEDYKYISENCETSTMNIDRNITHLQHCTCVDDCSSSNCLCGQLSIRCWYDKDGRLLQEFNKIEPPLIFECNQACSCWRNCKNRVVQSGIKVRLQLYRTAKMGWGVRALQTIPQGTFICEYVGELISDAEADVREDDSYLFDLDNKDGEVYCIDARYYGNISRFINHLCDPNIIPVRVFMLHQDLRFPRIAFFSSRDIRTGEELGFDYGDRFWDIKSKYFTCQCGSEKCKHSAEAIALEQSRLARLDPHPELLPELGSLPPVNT
Method in brief: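 Chemiluminescent proximity detection of H3K9 monomethylation, read after 10 min bead incubation in the dark. Reaction: 20 nM G9a, 500 nM biotin-H3K9 peptide, 20 uM SAM cofactor, 2 h, room temperature, following 15 min enzyme-compound preincubation.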
% is set by controls: 0 for no effect and ±100 for the full control effect; potency is the fitted concentration of half-maximal effect; tags give direction and shape of the fitted curve.

Compound	Potency	activity, negative = inhibition
Cc1ccc(C)c(OCc2nc3ccc(S(=O)(=O)Nc4c(C)n(C)n(-c5ccccc5)c4=O)cc3[nH]2)c1	inconclusive: 100 µM [inhibitor, single point]	–
CCc1ccc(N2CC(C(=O)Nc3ccc4c(c3)OCCO4)CC2=O)cc1 (stereo not given)	inconclusive: 1.26 µM [inhibitor, full curve, poor fit]	–
COc1ccccc1N1CCN(C2CC(=O)N(c3ccccc3)C2=O)CC1 (stereo not given)	inconclusive: 79.4 µM [inhibitor, partial curve, poor fit]	–
CC(C)(C)n1cnc2cc(NC(=O)c3cccs3)ccc21	active: 39.8 µM	–
O=C1c2oc3ccccc3c(=O)c2C(c2ccc(Br)cc2)N1c1ccccn1 (stereo not given)	inactive	–
COc1ccc(Cn2c(C(=O)O)c(CNCc3cccc(OC)c3)c3ccc(C)cc32)cc1	inconclusive: 6.31 µM [inhibitor, single point]	–
Cc1nc2ccc(S(=O)(=O)NC(C(=O)N3CCC(C)CC3)C(C)C)cc2s1 (stereo not given)	inactive	–
O=C(Nc1nnc(CCN2CCOCC2)s1)C1CCCCC1	inconclusive: 0.1 µM [inhibitor, full curve, poor fit]	–
CCc1nn(CC(=O)N2CCN(c3cccc(C)c3C)CC2)c(=O)c2cc3occc3n12	inactive	–
Cc1ccccc1CNC(=O)c1ccc(Cl)c([N+](=O)[O-])c1	inconclusive: 89.1 µM [inhibitor, single point]	–
CC(=O)Nc1ccc(C(=O)COC(=O)c2nc3nc(C)cc(C)n3n2)cc1	inconclusive: 7.08 µM [inhibitor, single point]	–
Cn1c(CSCc2ccc(F)cc2)nnc1SCC(=O)Nc1cccc(C(=O)O)c1	inconclusive: 89.1 µM [inhibitor, single point]	–
CCCn1c(=O)c(C(=O)Nc2c(C)n(C)n(-c3ccccc3)c2=O)c(O)c2ccccc21	inconclusive: 2 µM [inhibitor, partial curve, poor fit]	–
COc1ccc2oc(=O)c(/C(C)=N/Nc3nc(-c4cc(C)ccc4C)cs3)cc2c1	inconclusive: 39.8 µM [inhibitor, single point]	–
CN1CCN(c2ncc3nc(-c4cc(F)cc(F)c4)c(=O)n(CCc4ccccc4)c3n2)CC1	–	inactive: -7.88% [at 0.501 µM]
COc1ccc(N2C(=O)CC(Sc3ncccc3C(=O)O)C2=O)cc1 (stereo not given)	inconclusive: 89.1 µM [inhibitor, single point]	–
CCN(CC(=O)Nc1ccc2c(c1)OCCO2)Cc1cc(=O)oc2cc(C)c(C)cc12	inconclusive: 22.4 µM [inhibitor, single point]	–
COc1cccc(CN(C)C(=S)Nc2cccc(C)c2)c1	inconclusive: 89.1 µM [inhibitor, partial curve, poor fit]	–
COc1ccc(/C(N)=N/OC(=O)c2cccc([N+](=O)[O-])c2)cc1	inconclusive: 89.1 µM [inhibitor, single point]	–
CC(C)(C)c1csc(NC(=O)c2cccs2)n1	inconclusive: 12.6 µM [inhibitor, partial curve, poor fit]	–
CCn1cc(C(=O)NCCCOC(C)C)c(=O)c2cc(S(=O)(=O)N3CCc4ccccc4C3)ccc21	inactive	–
O=C(CN1C(=O)CCSc2ccc(S(=O)(=O)N3CCCC3)cc21)Nc1ccccc1	inactive	–
NC(=O)CSc1oc(-c2ccco2)nc1S(=O)(=O)c1ccc(Br)cc1	active: 28.2 µM	–
O=C1C(=Cc2cccn2-c2ccccc2)C(=O)c2ccccc21	active: 3.55 µM	–

Compound	Potency	activity, negative = inhibition
CCc1nn(CC(=O)NC(C)CCc2ccccc2)c(=O)c2cc3cc(F)ccc3n12 (stereo not given)	active: 50.1 µM	–
CCc1nnc(NC(=O)c2nc(S(=O)(=O)Cc3cccc(C)c3)ncc2Cl)s1	active: 3.98 µM and active: 44.7 µM	–
CC(=O)/C(=N\Nc1ccccc1)Sc1nncn1C	active: 3.98 µM	–
CCN(CCNC(=O)C1CCCN(S(=O)(=O)c2cnc[nH]2)C1)c1ccccc1 (stereo not given)	inconclusive: 89.1 µM [inhibitor, single point]	–
CC(C)(C)C(=O)c1cn(CC(=O)NCc2ccc3c(c2)OCO3)c2ccccc12	inactive	–
Cn1c(NCCCCO)nc2c1c(=O)n(Cc1ccc(Cl)cc1)c(=O)n2C	inactive	–
Cc1cc(CNC(=O)COC(=O)Cn2[nH]c(=O)c3ccccc3c2=O)cc(C)c1O	inactive	–
COc1ccc(CNC(=O)/C=C/c2ccco2)cc1OC	active: 44.7 µM	–
COc1ccc(NC(=O)Cn2c(=O)n(CCCC(=O)NCc3ccccc3OC)c(=O)c3ccccc32)cc1Cl	inconclusive: 0.447 µM [inhibitor, full curve, poor fit]	–
CCOc1cc(/C=C(\C#N)c2[nH]nc(N)c2C#N)ccc1O	inconclusive: 89.1 µM [inhibitor, single point]	–
Cc1ccc(C(=C2C3C=CC2C2C(=O)NC(=O)C32)c2ccc(C)cc2)cc1 (stereo not given)	inconclusive: 89.1 µM [inhibitor, single point]	–
CCCCCCCN1N=C(C)C(C(=O)c2ccccc2)C1=O (stereo not given)	inconclusive: 28.2 µM [inhibitor, partial curve, poor fit]	–
CC1(C)CC(=O)C2=C(C1)OC1=C(C(=O)CC(C)(C)C1)C2c1ccc(O)cc1O	active: 2.82 µM	–
CCN(CC)c1ccc(/C=N/Nc2nc(C)cc(C)n2)cc1	inconclusive: 44.7 µM [inhibitor, single point]	–
O=C(Nc1ccc(N2CCOCC2)cc1)Nc1cnsn1	–	inconclusive: -117% [inhibitor]
C=CCN1C(=O)C(Cc2cccc(Cl)c2)S/C1=N/N=C/c1ccco1 (stereo not given)	active: 10 µM	–
O=c1c2c(-c3ccccc3)csc2nc2c3ccccc3c(NCCN3CCOCC3)nn12	inconclusive: 50.1 µM [inhibitor, partial curve, poor fit]	–
COC(=O)c1cc(=O)n(Cc2ccc(OC)c(OC)c2)c(=Nc2ccc(F)cc2)s1	inconclusive: 56.2 µM [inhibitor, partial curve, poor fit]	–
O=C(Nn1c(O)c(C=C2N=c3ccccc3=N2)sc1=S)c1cccc(Cl)c1	inconclusive: 0.891 µM [inhibitor, partial curve, poor fit]	–
CC(=O)Nc1ccc(/C=N/NC(N)=S)cc1	inactive	–
O=C(Cn1c(NCCCCl)nc2ccccc21)c1ccccc1	–	inactive: -22.9% [at 0.501 µM]
CC1=CC(C)=Nc2ccccc2N1	active: 39.8 µM	–
Cc1cc(C(=O)COC(=O)c2cccs2)c(C)n1-c1c(C)n(C)n(-c2ccccc2)c1=O	inconclusive: 44.7 µM [inhibitor, partial curve]	–
COc1cccc(/C=C/C(=O)Nc2ccc3nc4n(c(=O)c3c2)CCCC4)c1OC	inactive	–

Compound	Potency	activity, negative = inhibition
CCCCCC(=O)NC(=S)NNC(=O)CC	–	inconclusive: -121% [inhibitor]
Cc1cccc(N2CCN(C(=O)C3CCCN(S(=O)(=O)c4cccc5nsnc45)C3)CC2)c1C (stereo not given)	inconclusive: 6.31 µM [inhibitor, partial curve, poor fit]	–
COc1ccccc1-c1cncnc1NCc1ccccc1	–	inactive: 3.91% [at 0.501 µM]
Cc1ccc(C(C(=O)NC2CCCC2)N(Cc2ccc(F)cc2)C(=O)c2csnn2)o1 (stereo not given)	inactive	–
COc1ccc(N2CCN(C(=O)c3c(C)oc4ncnc(N5CCCCC5)c34)CC2)cc1	inactive	–
COc1ccc(OC)c(S(=O)(=O)N2CCC(C(=O)N3CCOCC3)CC2)c1	inconclusive: 0.199 µM [inhibitor, partial curve, poor fit]	–
O=C1c2ccccc2C(=O)N1c1ccc(Cl)cc1	inactive	–
Cc1cc(C=O)c(C)n1-c1ccc(N2CCOCC2)cc1	inconclusive: 39.8 µM [inhibitor, single point]	–
Cc1ccc(-n2c(C)cc(/C=N/NC(=O)c3ccncc3)c2C)cc1	inconclusive: 56.2 µM [inhibitor, partial curve, poor fit]	–
O=C(Cn1c(=O)[nH]c2sc3c(c2c1=O)CCCC3)NCC1CCCO1 (stereo not given)	inconclusive: 89.1 µM [inhibitor, single point]	–
O=C(C1CCCN(Cc2cccs2)C1)N1CCCCCC1 (stereo not given)	active: 8.91 µM	–
Fc1cccc2sc(Nc3nnc(-c4ccco4)o3)nc12	inactive	–
CCCCCCCCCCCC(=O)OCC(O)CO (stereo not given)	inactive	–
Cc1ccc(O)c(NC(=O)CSc2n[nH]c(-c3ccccc3)n2)c1	inactive	–
O=C(Nc1nnc(SCC(=O)N2CCCc3ccccc32)s1)c1ccc2ccccc2c1	inconclusive: 20 µM [inhibitor, single point]	–
COc1cc(C(=O)Nc2ccc(O)cc2C(=O)O)ccc1OC(C)=O	inconclusive: 89.1 µM [inhibitor, single point]	–
Cc1cc(C(=O)COC(=O)c2ccc(Cl)c(S(N)(=O)=O)c2)c(C)n1CC1CCCO1 (stereo not given)	inconclusive: 50.1 µM [inhibitor, partial curve]	–
COCCCNC(=S)N(Cc1ccccc1)Cc1nc2ccccc2c(=O)[nH]1	inconclusive: 28.2 µM [inhibitor, single point]	–
CC(=O)Nc1ccc(NC(=O)CSC2=NS(=O)(=O)c3cc(F)ccc3N2)cc1	inconclusive: 25.1 µM [inhibitor, partial curve, poor fit]	–
COc1cccc(CNC(=O)CN(C)S(=O)(=O)c2ccc3c(c2)n(C)c(=O)c(=O)n3C)c1	inactive	–
O=C(Nc1ccccc1)Nc1ccc2c(c1)CCC2	inconclusive: 56.2 µM [inhibitor, partial curve]	–
O=C(CCCCCn1c(=O)[nH]c2ccccc2c1=O)NCc1cccc(Cl)c1	inactive	–

— PubChem BioAssay AID504332 (National Center for Advancing Translational Sciences (NCATS), 2011)
